PubChem BioAssay (NCI)
Values joined by “and” are separate entries in the source; they are usually repeats but may differ in a detail not shown here. Equal entries are not always repeated.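 Following 48 hours of exposure in 96-well plates, responses at five concentrations were used to interpolate endpoints linearly. GI50 is the concentration that inhibits growth by half. TGI marks complete inhibition of growth.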 Numbered stars: 1 amine (or outer) side, 2 acyl side, 3 side chain; on linkers, the order of the positions; unused ones are H or OH. Bridge positions count the residues as written; N and C are the ends. Square brackets hold non-standard residues; d marks the D form. Peptide text beside a SMILES is read from it. ξ: configuration not given here. X30 = CCC(C)C(N[*:1])C(O)CC(=O)O[C@H](C(=O)C(C)C(=O)[*:2])C(C)C; X29 = O=C([C@@H]1CC(O)CN1[*:1])[*:2]; NMeY = CN[C@@H](Cc1ccc(O)cc1)C(=O)O; ξNMeL = CNC(CC(C)C)C(=O)O; ξT = CC(O)C(N)C(=O)O

Test system: NCI-H322M lung
Assay: inhibition of tumour cell growth, NCI panel, 48 h

Compound | GI50 | TGI
Cc1sc2ncnc(Sc3nc4ccccc4[nH]3)c2c1C | 23.1 µM | > 100 µM
CCCCCCCCCCCCCCCCCCOc1ccccc1CC(=O)OCC[N+](C)(C)C | 1.68 µM | 3.46 µM
COc1ccc(C2(CN(C)C)COc3cc(OC)c(OC)cc3C2=O)cc1OC (centres undefined) |  | > 100 µM
COc1ccc(/C=C2/C(=O)N(C(=O)c3ccc(Cl)cc3)N=C2C)cc1OC |  | > 100 µM
CC(=O)NNC=N/C(C#N)=C(\N)C#N |  | > 100 µM
COc1ccc(C2CC(=O)Nc3c2c(C)nn3-c2nc3ccccc3[nH]2)cc1 (centres undefined) | 3.93 µM | > 77.1 µM
[N-]=[N+]=Nc1ncc(-c2ccc(C(F)(F)F)cc2)c(NC2CCCCCC2)n1 | > 10 µM | > 10 µM
CN(C)c1cccc2[nH]c(-c3[nH]ncc3Nc3ccnc(N)n3)nc12 | 0.0192 µM | 0.336 µM
CC1CN=C(NCc2ccccc2)S1 (centres undefined) |  | > 100 µM
CN1C(c2ccccc2)CC(=Nc2ccccc2)CC1c1ccccc1 (centres undefined) |  | 43.7 µM
CC(=O)c1c2c(cc3c1CC1(Cc4cc5c(cc4C1)CCC5)C3)CCC2 |  | > 100 µM
Cc1cc2c(C(C)C)c(O)c(O)c3coc(/c1=c1/c(C)cc4c(C(C)C)c(=O)c(=O)c5coc1c45)c32 |  | 17.9 µM
Cc1cc2c(cn1)C(=O)OCC2 |  | > 100 µM
NC(=S)N/N=C/c1cc(CN2CCOCC2)c(N)cn1 |  | > 100 µM
CCN(CC)c1ccc(/C=C/C2=NN(c3cccc(S(=O)(=O)O)c3)C3(C2)C(Cl)C(=O)N3c2nc3ccccc3s2)cc1 (centres undefined) |  | 30.3 µM
CC1(C)OC2C(CO)OC(n3ccc(=O)[nH]c3=O)C2O1 (centres undefined) |  | > 100 µM
COc1ccccc1NC(=O)CC(=O)n1nc(C)c(N=Nc2ccccc2F)c1C |  | > 100 µM
CCCCCC(=O)N1c2ccccc2NC2=C(C(=O)CC(c3ccc(OC)c(OC)c3)C2)C1c1ccc(C(F)(F)F)cc1 (centres undefined) | > 100 µM | > 100 µM
O=[N+]([O-])c1ccc(Cc2nc3ccccc3s2)cc1 |  | > 100 µM
C/C(=N\NC(N)=S)c1ccc(/C(C)=N/NC(N)=S)cc1 |  | > 100 µM
COc1ccc(/C=C/C(=O)c2ccc(Nc3ncnc4ccccc34)cc2)cc1OC | 30.3 µM | > 100 µM
Cc1sc2ncnc(NCCc3ccccc3)c2c1C |  | 53.3 µM
CC1C2CC(C(C3C(=O)C4CC3C(C)(C)C4C)C2=O)C1(C)C (centres undefined) |  | > 100 µM
COc1nccc(-c2c(-c3ccc(F)cc3)ncn2C2CCC(O)CC2)n1 (centres undefined) | 33.7 µM | > 100 µM

Compound | GI50 | TGI
O=C1N=C2c3c(sc4c3CCCC4)N=CN2C1N=Nc1ccc(Cl)cc1 (centres undefined) | 33 µM | > 100 µM
COc1ccc(CSCc2cc(OC)c(OC)c(OC)c2)cc1 |  | > 100 µM
COc1ccccc1NC(=O)C(C#N)=C(SC)SC |  | > 100 µM
O=C(Oc1ccccc1)c1cc(O)c(O)c(O)c1 | 14.9 µM | > 100 µM
CC1CCCc2c(-c3ccc(Cl)cc3)nc(N)c(C#N)c21 (centres undefined) |  | > 100 µM
COc1cc2c(cc1OC)-c1c(cnn1C1OC(COC(C)=O)C(OC(C)=O)C(OC(C)=O)C1OC(C)=O)CC2 (centres undefined) |  | > 100 µM
Cc1cccc(C(C)O)n1 (centres undefined) |  | > 100 µM
N[C@@H]1C[C@H](N)c2c(Cl)sc(Cl)c21 |  | > 100 µM
COc1ccc(-c2ccc(/C=N/n3cn[nH]c3=S)o2)c([N+](=O)[O-])c1 | 43 µM | > 100 µM
Cc1c(-c2ccccc2)c(-c2ccc(OCCN(C)C)cc2)n2ccccc12 |  | 22.3 µM
Cn1cnc2c(F)c(Nc3ccc(Br)cc3Cl)c(C(=O)NOCCO)cc21 | 2.12 µM and 3.61 µM | > 100 µM
CC(SC1=CC(=O)c2c(Cl)ccc(O)c2C1=O)C(=O)O (centres undefined) |  | 31.3 µM
CCCCCCN(C(=O)Oc1ccccc1)C(C#N)c1ccccc1 (centres undefined) |  | > 100 µM
CCOc1ccc(NCC(=O)N2CC(=O)Nc3ccccc32)cc1 |  | > 100 µM
COc1ccc2oc(=N)c(C(N)=S)cc2c1 |  | 98.6 µM
COc1ccc(NC(=O)C2=C(SC)C(C#N)C(=O)N=C2N)cc1 (centres undefined) |  | > 100 µM
C1CSCC2(COC2)CS1 |  | > 100 µM
Clc1nc(Cl)c2ncn(C/C=C\Cn3cnc4c(Cl)nc(Cl)nc43)c2n1 | 3.75 µM | 12.5 µM
Cc1ccc(S(=O)(=O)N/N=C2\C(=O)C3CC2C(Cl)C3Cl)cc1 (centres undefined) |  | > 100 µM
CCC(C)C1NC(=O)C(NC(=O)C(CC(C)C)N(C)C(=O)[C@@H]2CC(O)CN2)C(C)OC(=O)[C@H](Cc2ccc(OC)cc2)N(C)C(=O)[C@@H]2CCCN2C(=O)[C@H](CC(C)C)NC(=O)C(C)C(=O)[C@H](C(C)C)OC(=O)CC1O (some centres undefined) (H-[X29][ξNMeL][ξT][X30]LP[NMeY](Me); ester 3-C) |  | 0.155 µM
O=c1c2cc(I)ccc2nc(-c2cccs2)n1Nc1ccccc1 |  | 86.4 µM
NN/C(=N\S(=O)(=O)c1cc(Cl)c(Oc2ccc([N+](=O)[O-])cc2Cl)c(Cl)c1)Nc1ccc(Cl)cc1 |  | 63.9 µM
Cc1cccc2c3c(sc12)C(c1ccc(Cl)cc1)C(C#N)=C(/N=C/c1ccc(Cl)cc1)O3 (centres undefined) | 0.707 µM | > 100 µM
CC(=O)OCC(OC(C)=O)C(OC(C)=O)C(/C=N/N(C(C)=O)S(=O)(=O)c1ccc(/C=C2\NC(=O)NC2=O)cc1)OC(C)=O (centres undefined) |  | > 100 µM

Compound | GI50 | TGI
C[N+](C)(C)CC1Cc2ccccc2C1=O (centres undefined) |  | > 10 µM
N=C(c1ccccc1)N1CCCCC1 |  | > 100 µM
N#C/C(=C\c1cn(-c2ccccc2)c2ccccc12)C(=O)O | 83.6 µM | > 100 µM
O=C1C(NCCO)=C(N2CC2)C(=O)C(NCCO)=C1N1CC1 |  | > 100 µM
CC(=O)Nc1ccc(-c2nnc(SCC(=O)Nc3ccccc3Cl)o2)cc1 |  | > 100 µM
CN(C)c1ccc(C2CC(=O)CC(c3ccc(N(C)C)cc3)C23C(=O)NC(=O)NC3=O)cc1 (centres undefined) |  | > 25 µM
Cc1c(C(=O)/C=C/c2ccc(O)cc2)nnn1-c1ccnc2c(C(F)(F)F)cccc12 | 8.01 µM | 89.3 µM
CCOC(=O)[C@H]1C[C@@H](C(=O)c2ccccc2)N2N=C(c3ccc(Br)cc3)C=C[C@H]12 |  | > 100 µM
OCCN(CO)CN(CN(CO)CCO)c1nc(N(CN(CO)CCO)CN(CO)CCO)nc(N(CN(CO)CCO)CN(CO)CCO)n1 | 0.00179 µg/mL | 0.196 µg/mL
CCOC(=O)c1sc(=S)c2c(C(=O)c3ccccc3)c(C(=O)c3ccccc3)sc2c1C(=O)OCC | 5.18 µM | 77.3 µM
CCn1c(=O)c2c(=O)[nH][nH]c2c2ccccc21 |  | > 100 µM
C#Cc1cccc(NC(=O)Nc2ccc(NC(=O)CCl)cc2)c1 | > 82.5 µM | > 82.5 µM
CSc1nc(C)cc(Nc2ccc(O)c(CN3CCCCC3)c2)n1 |  | > 100 µM
CSC1=N/C(=C\c2cccs2)C(=O)N1CN1CCCCC1 |  | > 100 µM
C[C@]12CC[C@H]3[C@@H](CC=C4C[C@@H](O)CC[C@@]43C)[C@@H]1C/C(=C\c1cccc(OCCN3CCOCC3)c1)[C@@H]2O | > 100 µM | > 100 µM
COC(=O)n1c(=O)nc2c3c(ncn21)Oc1c(c(-c2ccccc2)nn1-c1ccccc1)C3c1ccc(Cl)cc1 (centres undefined) |  | 2.95 µM
COc1n[n+]([O-])c(C)cc1[N+](=O)[O-] | 21.3 µM | 45.5 µM
COC(=O)Nc1ccc2ccc3c(NC(=O)OC)ccc4ccc1c2c43 (tested in a mixture with another compound) | 11.8 µM | > 50 µM
CCCCCCn1c(-c2ccc(C(=O)O/N=C(\N)c3ccc(OC)cc3)cc2)nc(-c2ccccc2)c1-c1ccccc1 | 3.93 µM | > 100 µM
O=S(=O)(O)C(F)(F)C(F)(F)C(F)(F)C(F)(F)F |  | > 100 µM
CN1CC=C(OP(=O)(NCc2ccccc2)N(CCCl)CCCl)CC1 (centres undefined) |  | > 100 µM
O=C(O)C(/C=C/c1ccco1)=N\Nc1nc(-c2ccc(Cl)cc2)cs1 | 20 µM | > 50 µM
